A compilation of properties of binary mixtures (doi:10.1016/j.molliq.2017.07.014)
The densities may have been worked out from excess volumes.

Experiment: xn = mol fraction of the nth substance listed
Settings: 101 kPa

Q: Which results are given for `CN1CCCC1=O` + CCCC[P+](C)(CCCC)CCCC.COS(=O)(=O)[O-]?
A: mass density (293.15 K, x2 = 0): 1032.7 kg/m3; mass density (298.15 K, x2 = 0): 1025.8 kg/m3; mass density (303.15 K, x2 = 0): 1023.7 kg/m3; mass density (308.15 K, x2 = 0): 1019.3 kg/m3; mass density (313.15 K, x2 = 0): 1014.7 kg/m3; mass density (318.15 K, x2 = 0): 1010.2 kg/m3; mass density (323.15 K, x2 = 0): 1005.8 kg/m3

Q: What does the source list for `CCCC[P+](C)(CCCC)CCCC.COS(=O)(=O)[O-]` + CN1CCCC1=O?
A: mass density (293.15 K, x1 = 0.056): 1038.6 kg/m3; mass density (293.15 K, x1 = 0.0914): 1041.9 kg/m3; mass density (293.15 K, x1 = 0.1311): 1044.7 kg/m3; mass density (293.15 K, x1 = 0.1773): 1047.6 kg/m3; mass density (293.15 K, x1 = 0.2318): 1050.1 kg/m3; mass density (293.15 K, x1 = 0.2971): 1053.4 kg/m3; mass density (293.15 K, x1 = 0.3764): 1055.7 kg/m3; mass density (293.15 K, x1 = 0.4752): 1057.9 kg/m3; mass density (293.15 K, x1 = 0.6014): 1059.4 kg/m3; mass density (293.15 K, x1 = 0.7129): 1059.8 kg/m3; mass density (293.15 K, x1 = 0.8515): 1061.2 kg/m3; mass density (293.15 K, x1 = 0.9022): 1061.7 kg/m3; mass density (293.15 K, x1 = 0.9468): 1061.5 kg/m3; mass density (293.15 K, x1 = 1): 1061.7 kg/m3; mass density (298.15 K, x1 = 0.0914): 1039.2 kg/m3; mass density (298.15 K, x1 = 0.1311): 1043.4 kg/m3; mass density (298.15 K, x1 = 0.1773): 1046.8 kg/m3; mass density (298.15 K, x1 = 0.2318): 1050.1 kg/m3; mass density (298.15 K, x1 = 0.2971): 1052.8 kg/m3; mass density (298.15 K, x1 = 0.4752): 1056.2 kg/m3; mass density (298.15 K, x1 = 0.6014): 1057.2 kg/m3; mass density (298.15 K, x1 = 0.8515): 1058 kg/m3; mass density (298.15 K, x1 = 0.9022): 1058.1 kg/m3; mass density (298.15 K, x1 = 0.9468): 1058.4 kg/m3; mass density (303.15 K, x1 = 0.056): 1032.4 kg/m3; mass density (303.15 K, x1 = 0.1311): 1040.2 kg/m3; mass density (303.15 K, x1 = 0.3764): 1051.7 kg/m3; mass density (303.15 K, x1 = 0.4752): 1053 kg/m3; mass density (303.15 K, x1 = 0.6014): 1054 kg/m3; mass density (303.15 K, x1 = 0.7129): 1054.4 kg/m3; mass density (303.15 K, x1 = 0.8515): 1054.9 kg/m3; mass density (303.15 K, x1 = 1): 1055.6 kg/m3; mass density (308.15 K, x1 = 0.056): 1027.4 kg/m3; mass density (308.15 K, x1 = 0.0914): 1031.4 kg/m3; mass density (308.15 K, x1 = 0.1311): 1035.6 kg/m3; mass density (308.15 K, x1 = 0.1773): 1039 kg/m3; mass density (308.15 K, x1 = 0.2318): 1042.5 kg/m3; mass density (308.15 K, x1 = 0.2971): 1045.2 kg/m3; mass density (308.15 K, x1 = 0.3764): 1047.7 kg/m3; mass density (308.15 K, x1 = 0.4752): 1049 kg/m3; mass density (308.15 K, x1 = 0.6014): 1050 kg/m3; mass density (308.15 K, x1 = 0.7129): 1050.8 kg/m3; mass density (308.15 K, x1 = 0.8086): 1051.5 kg/m3; mass density (308.15 K, x1 = 0.8515): 1051.7 kg/m3; mass density (308.15 K, x1 = 0.9022): 1051.9 kg/m3; mass density (308.15 K, x1 = 0.9468): 1052.2 kg/m3; mass density (308.15 K, x1 = 1): 1052.5 kg/m3; mass density (313.15 K, x1 = 0.0914): 1026.8 kg/m3; mass density (313.15 K, x1 = 0.1311): 1031 kg/m3; mass density (313.15 K, x1 = 0.2318): 1037.9 kg/m3; mass density (313.15 K, x1 = 0.2971): 1041.1 kg/m3; mass density (313.15 K, x1 = 0.3764): 1043.7 kg/m3; mass density (313.15 K, x1 = 0.4752): 1045.3 kg/m3; mass density (313.15 K, x1 = 0.6014): 1046.5 kg/m3; mass density (313.15 K, x1 = 0.7129): 1047.5 kg/m3; mass density (313.15 K, x1 = 0.8086): 1048.2 kg/m3; mass density (313.15 K, x1 = 0.8515): 1048.5 kg/m3; mass density (313.15 K, x1 = 0.9022): 1048.7 kg/m3; mass density (313.15 K, x1 = 0.9468): 1049.1 kg/m3; mass density (313.15 K, x1 = 1): 1049.5 kg/m3; mass density (318.15 K, x1 = 0.056): 1018.5 kg/m3; mass density (318.15 K, x1 = 0.0914): 1022.5 kg/m3; mass density (318.15 K, x1 = 0.1311): 1026.3 kg/m3; mass density (318.15 K, x1 = 0.1773): 1029.9 kg/m3; mass density (318.15 K, x1 = 0.2971): 1036.6 kg/m3; mass density (318.15 K, x1 = 0.3764): 1039.7 kg/m3; mass density (318.15 K, x1 = 0.4752): 1041.4 kg/m3; mass density (318.15 K, x1 = 0.6014): 1042.9 kg/m3; mass density (318.15 K, x1 = 0.8515): 1045.3 kg/m3; mass density (318.15 K, x1 = 0.9022): 1045.5 kg/m3; mass density (318.15 K, x1 = 0.9468): 1045.9 kg/m3; mass density (318.15 K, x1 = 1): 1046.5 kg/m3; mass density (323.15 K, x1 = 0.056): 1013.9 kg/m3; mass density (323.15 K, x1 = 0.1311): 1021.6 kg/m3; mass density (323.15 K, x1 = 0.1773): 1025.1 kg/m3; mass density (323.15 K, x1 = 0.2318): 1028.7 kg/m3; mass density (323.15 K, x1 = 0.2971): 1032.2 kg/m3; mass density (323.15 K, x1 = 0.3764): 1035.5 kg/m3; mass density (323.15 K, x1 = 0.4752): 1037.7 kg/m3; mass density (323.15 K, x1 = 0.7129): 1040.7 kg/m3; mass density (323.15 K, x1 = 0.8086): 1041.7 kg/m3; mass density (323.15 K, x1 = 0.8515): 1042 kg/m3; mass density (323.15 K, x1 = 0.9022): 1042.4 kg/m3; mass density (323.15 K, x1 = 0.9468): 1042.8 kg/m3; mass density (323.15 K, x1 = 1): 1043.4 kg/m3
